In patent publication US6811967B2 (The University of Manitoba, priority 2001, dated 2004):

Molecular target: spermidine/spermine N1-acetyltransferase (SSAT) (Mus musculus, UniProt P48026)
Assay: Spermidine acetylation assay with mouse liver 100,000xg supernatant
Format: biochemical
Set-up: from tissue; host or cells: liver 100,000xg supernatant of transgenic and non-transgenic male CD2F1 mice
Conditions: transgenic mouse liver supernatant, mean±SE, n=10 different mice

Sequence of spermidine/spermine N1-acetyltransferase (SSAT) (P48026 whole entry): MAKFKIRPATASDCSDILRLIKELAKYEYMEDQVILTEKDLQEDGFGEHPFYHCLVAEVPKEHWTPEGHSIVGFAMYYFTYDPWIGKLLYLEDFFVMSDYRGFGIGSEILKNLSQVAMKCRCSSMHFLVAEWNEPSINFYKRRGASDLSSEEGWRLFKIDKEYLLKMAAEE

NCCCCNCCCN [spermidine]
Vmax of spermidine acetylation: 0.009±0.002 nmol/min/mg protein
